# Reference: the supplement of paper PMC3334620
# Whole data set: some 33,000 sequences, median “E-score (-0.5 to 0.5)” near -0.04, cut for the highest 2% near 0.36. The list shows a part of the results.
# Target: T1, Hmlalpha2 (UniProt P0CY09)
# T1 sequence: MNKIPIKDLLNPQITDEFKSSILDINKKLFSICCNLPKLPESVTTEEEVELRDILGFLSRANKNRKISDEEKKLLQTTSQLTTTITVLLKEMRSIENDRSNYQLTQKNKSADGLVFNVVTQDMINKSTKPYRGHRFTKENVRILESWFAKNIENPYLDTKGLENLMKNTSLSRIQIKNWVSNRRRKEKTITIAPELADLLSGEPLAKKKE
# Assay: PBM E-score (8-mer binding enrichment) (E-score (-0.5 to 0.5)); higher = stronger / more preferred TF binding; most listed sequences are background and not binding sites
# Conditions: protein concentration: 200 nM; construct: GST-full length
# Summary of the method: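 Bound GST-tagged yeast transcription factors, applied at about 100-200 nM to double-stranded universal all-10-mer Agilent arrays, were detected with fluorescent anti-GST. Scans were normalised with masliner. A modified Wilcoxon-Mann-Whitney statistic, the E-score, was assigned to each ungapped eight-base word pooled with its reverse complement by the Universal PBM Analysis Suite.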
row,Sequence,PBM E-score
1,AGTTCCGC,-0.147
2,AGCGTCCT,-0.069
3,CTCCTTAC,0.0461
4,GTTTTTCA,0.144
5,ACATTAAC,0.274
6,GCGGGCCC,-0.332
7,ATTCCCAA,-0.0247
8,CCCTCTTC,-0.323
9,ACTGCTCA,0.0532
10,AGATTCCG,-0.0795
11,GGTCCTTA,-0.191
12,ATGGGATA,-0.0868
13,ATCGCATA,0.117
14,GAAAACCA,-0.147
15,TGACTCAA,0.0928
16,ATCCAAAT,0.175
17,ATTCAAGA,0.0843
18,GACGAACA,0.168
19,CAAAAGGA,0.0149
20,CCAGGCCG,-0.0128
21,AGAGAGCT,-0.282
22,CGCACATA,-0.0967
23,AGTTGGGG,-0.255
24,GTCCTCAC,-0.183
25,AACGGCTA,0.0673

row,Sequence,PBM E-score
1,ATAGGCCC,-0.3
2,AAGCAATA,0.0227
3,AAGTACAC,0.359
4,CTCGTCTA,-0.0113
5,GGCAGAAA,0.0971
6,CGCTAGTC,-0.259
7,ATGGAGTA,-0.0022
8,CGTTGTAC,0.278
9,AGGAGAAC,-0.119
10,ATCCAGCA,-0.0498
11,CCGCATAC,0.0261
12,GCGTATAC,0.371
13,GGTCAGCA,-0.0791
14,ATCCCATG,0.0147
15,ATGTGCTC,0.159
16,GACGCGGA,0.0365
17,CAACGTCG,0.157
18,CTCAAGGC,-0.12
19,ATACACTC,0.185
20,TAAGCACA,0.0914
21,GTGAGGGA,-0.233
22,CGGGTCCC,-0.317
23,GTCCTCAA,0.0177
24,AATTCTGA,0.0269
25,GGTTTGGA,-0.00811

row,Sequence,PBM E-score
1,CATATTAA,0.264
2,ACCAAGCA,-0.0294
3,ACAGCCGG,-0.073
4,ACAGCACC,-0.177
5,ACCGCCTA,-0.116
6,AGTTATGC,-0.0758
7,CCATTTTC,-0.0309
8,AAGCTCGA,0.0333
9,ACTGTTAC,0.00767
10,ATGTCTGA,0.0994
11,CAGTGAAA,-0.0586
12,ATGTCGTG,0.275
13,AGTTATAA,0.172
14,CTAATTCA,0.157
15,CGTACAAG,0.149
16,CGCATGTA,0.422
17,CGAATCCG,0.0414
18,CAGATATA,0.118
19,CACGCTCC,0.0503
20,ATTCGCGA,0.0435
21,CCCCCCCG,-0.385
22,AAAAGCCT,-0.154
23,ATAGTCAT,-0.0877
24,ATTCAACA,0.352
25,AGCCTTTC,-0.3

row,Sequence,PBM E-score
1,GAAGTCAA,-0.176
2,CCTTTAAC,0.279
3,AATCCTTA,-0.0251
4,ATACACTA,0.149
5,AGCCTCCC,-0.306
6,GTGTATAA,0.391
7,GCCCTCGC,-0.2
8,ATGTGGCG,-0.046
9,CCCGGGCC,-0.402
10,AATAGGGT,-0.059
11,CCGACGCC,0.0274
12,CACACTCA,0.135
13,CCGACTGA,-0.188
14,CCTGATTA,0.0825
15,AGATCGGA,-0.0522
16,AATTGTCC,-0.113
17,ACAGTACA,0.246
18,ACACAAAG,0.236
19,TCGAGCGA,-0.0571
20,CAAGTATG,0.109
21,CCGCACAC,-0.159
22,CAAATCAA,0.191
23,GTAGTTTA,0.301
24,CCTTTTTC,-0.111
25,GAATAGCA,-0.0136

row,Sequence,PBM E-score
1,AGACAGTG,0.00269
2,AGCACAGA,0.0774
3,GAAATCTA,-0.0263
4,AGACTTTA,-0.0845
5,AGGGAATG,-0.252
6,AGAATTCT,0.136
7,CCTGTCGC,-0.136
8,ATGTCTGG,0.00831
9,CAAGGACG,-0.139
10,ACCTAACA,0.0957
11,GCTGCACA,0.0338
12,ACTTGAGG,-0.203
13,ACCCCGTA,-0.0995
14,AAAAAAAC,0.0774
15,GAAACGAC,0.0452
16,CCCCTGCG,-0.195
17,GACTGTGC,-0.0787
18,CCGACCCA,-0.155
19,CGCCGGCA,-0.235
20,ACGGGCCA,-0.115
21,CAAAGGCC,-0.284
22,ACTGAACG,-0.0518
23,GTGACAGA,0.176
24,AACAGTAC,0.174
25,CTTGAGGC,-0.122

row,Sequence,PBM E-score
1,AAGTACGC,0.0863
2,TTATGCAA,0.11
3,ATTGTACA,0.403
4,ACGCTGGC,-0.0793
5,TAGATTGA,0.123
6,ACTAAGCC,-0.195
7,CCATATCG,-0.0849
8,CCTTATAG,0.00852
9,ACCCTTCA,0.00911
10,TCTCCCCA,-0.301
11,TAAGGGTA,-0.0432
12,GGCCGGTA,-0.0877
13,ATGCCGGA,-0.058
14,CAATAACC,0.0425
15,GAAACAGA,0.102
16,TACCCACA,-0.015
17,CTGCCGGC,-0.224
18,GTGGAACA,0.0765
19,GGGGTCAC,-0.312
20,CAAGCGGG,-0.18
21,AACTACTT,0.126
22,AGAAATTA,0.194
23,CAACGAAC,0.0552
24,AGAGGAGA,-0.237
25,CACAGGTA,0.134

row,Sequence,PBM E-score
1,CTACCTAC,0.176
2,CACCTTGG,-0.108
3,CTGCCGGA,-0.269
4,ACGTGGGC,0.0276
5,GCAGGCTA,-0.277
6,ATTTCCGG,-0.251
7,ATCTTCAG,-0.0793
8,GTGTGGCA,-0.171
9,AAATTGGT,0.0284
10,ATCTGTCA,-0.018
11,AACCGAAT,0.101
12,GCAAGTAA,0.29
13,CTCGATTC,-0.00369
14,ATTACGCC,0.187
15,ATGGCTTC,-0.0107
16,ACTGAGAC,-0.0128
17,CTGCGAGC,-0.211
18,TCGGTTAA,0.0804
19,CGGGTGGA,-0.0165
20,ACGCCGAC,0.0712
21,AAATATCC,0.0945
22,ATGCCGAG,0.0282
23,CCGGCTCA,-0.129
24,ATACCTTC,-0.0798
25,TGGTTACA,0.258

row,Sequence,PBM E-score
1,ACAGACTA,0.0286
2,ACCAGAAG,0.0325
3,ACCTTCAG,-0.00682
4,GTAAATTA,0.303
5,CAGGCCGC,-0.201
6,AAGGCGCG,0.0201
7,ATTCCAAT,0.119
8,ATGCAATC,0.183
9,CGTATGAA,0.185
10,ATGGACTA,-0.0489
11,AAACCCGC,-0.114
12,CACACGAA,0.233
13,CTTCTTTA,0.0914
14,ACCGCCAG,-0.123
15,GAAAGTAA,0.0885
16,AAGTGACG,0.0755
17,ACATCGGT,0.0951
18,AAGAGCAA,-0.258
19,CCCATAGA,-0.2
20,GTGCGCAC,0.0838
21,CGCTAAAA,0.0305
22,AATGACAT,0.316
23,TAAAGTAA,0.211
24,CATTGAAC,0.222
25,ACCTCAAG,-0.0467

row,Sequence,PBM E-score
1,CTTGACCC,0.00083
2,GTTCTATA,0.141
3,AGATCAGG,-0.156
4,AGCGTCAC,-0.209
5,CTTCATGC,-0.196
6,GAGTCGAA,-0.158
7,ATGATTCC,0.0379
8,CGCATATA,0.191
9,CCCCCCTA,-0.311
10,GATATTCC,-0.216
11,GGCGCGTA,0.255
12,TATGCACA,0.0299
13,TGGGATAA,-0.0252
14,ACTTTACC,0.151
15,TCCTAGGA,-0.161
16,ATCGGTCC,-0.237
17,CCTGATAG,-0.115
18,AGGCTTGC,-0.0658
19,GTCTCGGA,-0.235
